# This is one part of the list.
# Test system: T1, C. trachomatis L2/434/Bu expressing GFP (CTL2-GFP)
# T1 construct: L2/434/Bu GFP intracellular growth in HeLa cells
# Set-up: species or system HeLa; C. trachomatis total inclusion area by high-content imaging, normalised to DMSO
# Details: total inclusion area; 28.5 h, 10 µM; inhibitor
# In short: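 Following bulk GFP and resorufin fluorescence reads, infected cells were fixed, Hoechst-stained and imaged on a high-content platform. Inclusion total area and number per well served as growth proxies; nuclei counts indicated host viability. MICs were derived as for the fluorescence assay.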
row,SMILES,% of control remaining
1,O=C(O)CC1Sc2ccccc2NC1=O (centres unmarked) [CBK261308],101.006
2,Cc1nn(CC(=O)N2CCN(C)CC2)c(=O)c2ccccc12 [CBK304221],34.8357
3,CCCn1ncc(CN2CCC(c3cc4cccnc4[nH]3)CC2)c1C [CBK284949],73.2272
4,CC(C)(C)OC(=O)COc1cc2oc(=O)cc(-c3ccccc3)c2cc1Cl [CBK263729],107.77
5,COC(=O)c1nn(C(=O)N(C)C)c(C)c1Br [CBK005077],62.9265
6,Cn1c(=O)c(C(=O)Nc2ccc(Cl)cc2)cc2cccnc21 [CBK287741],102.815
7,O=C(Nc1nnc(-c2ccncc2)o1)c1ccc(Cl)cc1Cl [CBK287433],108.302
8,COC(Cc1nc2ccccc2s1)C(=O)O (centres unmarked) [CBK265806],132.807
9,COC(=O)c1ccc(/C=C/C2=CCN(C)CC2)cc1 [CBK283744],97.0554
10,Cc1ccc(S(=O)(=O)N2CCN(c3nc(NC(C)c4ccccc4)c4ccccc4n3)CC2)cc1 (centres unmarked) [CBK266448],92.3781
11,CNC(=O)c1cc2ncc(C(F)(F)F)cc2s1 [CBK089882],116.173
12,Cc1ccc(/N=N/N(CC(O)C(O)C(O)CO)c2ccc(C)c(C)c2)cc1C (centres unmarked) [CBK262705],95.406
13,c1c2c(cc3sc(N4CCCC4)nc13)OCCO2 [CBK287496],121.717
14,CC(=O)Nc1ccc(S(=O)(=O)N2CCN(c3cc4[nH]c(=O)[nH]c4cc3[N+](=O)[O-])CC2)cc1 [CBK267013],105.594
15,O=C(O)C1CC(=O)N(CCc2ccccc2)/C(=N/CCc2ccccc2)S1 (centres unmarked) [CBK265558],90.7311
16,O=C(c1ccccc1)N1C[C@@H]2CCCCN(CC3CC3)[C@@H]2C1 [CBK285498],84.6601
17,CC1CCc2nc(NC(=O)Cn3cccc(C(=O)NC4CCCCC4)c3=O)sc2C1 (centres unmarked) [CBK286064],92.2865
18,Cc1nnc2c(N3CCN(CCO)CC3)nc3ccccc3n12 [CBK270146],111.936
19,O=C(C1CCCCC1)N1CCC(n2c(=O)[nH]c3ccccc32)CC1 [CBK149703],86.9431
20,COc1ccc(-c2ccccc2NC(=O)c2cccc(CN3CCCC3=O)c2)cc1 [CBK285865],90.1737
21,O=C(O)c1cccc(-c2cccc(N3CCN(c4ccccn4)CC3)n2)c1 [CBK036888],48.6746
22,O=C(Cc1c[nH]c2ccccc12)NC1CCCC1 [CBK200238],112.491
23,COC(=O)CCc1ccc(S(=O)(=O)N2CCN(Cc3ccc(O)c(F)c3)CC2)cc1 [CBK062813],101.624
24,Cc1cc(C)n(CC(C)NC(=O)c2cc(C(F)(F)F)nn2C)n1 (centres unmarked) [CBK281671],94.4063
25,CS(=O)(=O)N1CCc2cc(-c3csc(N)n3)ccc21 [CBK304596],114.398
26,CSc1nnc(-c2sccc2OCc2ccc(Cl)cc2Cl)n1C [CBK067693],78.6701
27,Cc1c(CN2CCCC(c3cc4cccnc4[nH]3)C2)cnn1C (centres unmarked) [CBK284683],51.6522

row,SMILES,% of control remaining
1,COC(=O)c1ccc(-c2ccc(OC)c(OC)c2)nc1 [CBK160175T],112.779
2,COc1ccc2c(c1)C1(CC(=O)N(C)C1=O)C(=O)N2CC(=O)O (centres unmarked) [CBK076118],97.0786
3,O=C(CNC(=O)c1ccc(OC(F)F)cc1)NCCCn1cccn1 [CBK297789],87.7352
4,CN(C)c1ccc(-c2nccnc2NS(=O)(=O)Cc2cccc(Cl)c2)cc1 [CBK050787],104.112
5,CCN(CC)C(=O)CN1C2CCC1CC(O)(c1ccco1)C2 (centres unmarked) [CBK284094],76.0223
6,CC(Oc1ccccc1)c1nnc(SCC(=O)Nc2cc(Cl)c(Cl)cc2Cl)n1C (centres unmarked) [CBK266262],141.521
7,CC(=O)Nc1ccc(OCC(O)Cn2cnc3ncccc3c2=O)cc1 (centres unmarked) [CBK304541],23.4785
8,Cc1ccnn1CCC(=O)N1CCn2cc(C(F)(F)F)nc2C1 [CBK283912],60.2109
9,O=C(CN(Cc1ccc(Cl)cc1Cl)S(=O)(=O)c1ccccc1)Nc1c(F)cccc1F [CBK265801],84.618
10,CC1Cc2cc(CCC(=O)N3CCCc4c(cnn4C)C3)ccc2O1 (centres unmarked) [CBK282882],94.7049
11,CC(=O)Nc1ccc(-c2ccc(C(=O)N3CCN(C(=O)OCc4ccccc4)CC3)cn2)cc1 [CBK160185],78.6878
12,CCc1n[nH]c(C(=O)N/N=C/c2cccnc2)c1C [CBK263386],101.073
13,Cc1[nH]c(=O)[nH]c(=O)c1CC(=O)N1CCc2ncc(Cl)cc2C1 [CBK286302],85.454
14,Cc1ccc(/C=N\NC(=O)c2cccc(Cl)c2)s1 [CBK016469],14.0795
15,Cc1ccc(C)c(C2CCCN2C(=O)C2CN(C(=O)C3CCN(C)CC3)C2)c1 (centres unmarked) [CBK286022],110.452
16,CCCN(C)Cc1ccc(-c2cn(CC(=O)NCc3ccc(OCC(F)F)cc3)nn2)cc1 [CBK166365],102.554
17,CCc1cc(NC[C@@H](O)CO)nc(-c2cc(F)c(F)c(F)c2)n1 [CBK132879],120.71
18,COc1ccnc(N2CCN(C(=O)CCc3ccsc3)CC2)n1 [CBK306350],43.9538
19,Cc1[nH]c2ccccc2c1C(=O)C(=O)Nc1sc(C)c(C)c1C#N [CBK270038],75.8465
20,Cc1ccc(Nc2nc(CSc3nnc(-c4ccccc4)o3)cs2)cc1 [CBK268455],113.067
21,O=C(Nc1ccc(-c2ccccc2C(F)(F)F)s1)C(F)(F)F [CBK099942],74.6377
22,COc1cccc(C(=O)Nc2ccc(-c3noc(-c4ccccn4)n3)cc2)c1 [CBK270055],111.906
23,NC(=O)c1sc2nc(-c3cccnc3)ccc2c1N [CBK023645],53.7275
24,Fc1cccc(F)c1OCCOc1nc(N2CCNCC2)ccc1C(F)(F)F [CBK003977A],9.569
25,Cc1ccc2[nH]cc(CCN3CCC4(CC3)NCCc3c4[nH]c4ccc(OCc5ccccc5)cc34)c2c1 [CBK039342],58.9706
26,C(=C\c1nccnc1OCCc1cccs1)/c1ccccc1 [CBK106873],86.4274
27,Nc1ccc2c(O)c(C(=O)NCc3ccc(Cl)cc3)c(=O)[nH]c2c1 [CBK017557],84.8473

row,SMILES,% of control remaining
1,COCCN1CCn2c(nc3cc(NC(=O)c4ccco4)ccc32)C1 [CBK267990],97.9289
2,COc1ccccc1CN1CCC(Cc2ccccc2-c2ccc(C)cc2C)(C(=O)O)CC1 [CBK286419],98.3241
3,O=C(O)CCSc1nc2ccccc2nc1N1CCCC1 [CBK107862],129.735
4,O=c1c2c([nH]c3nc(COc4ccccc4)nn13)CCC2 [CBK288188],131.053
5,COc1ccc(-c2nn(CC(=O)O)cc2/C=C/c2cc(C(F)(F)F)nc(=O)[nH]2)cc1 [CBK287128],106.882
6,CN(C)CCOC(=O)c1ccc(S(=O)(=O)N(C)C)o1 [CBK264273C],85.0089
7,COc1ccc(O[C@@H]2CCCC[C@@H]2N2CCCCC2)cc1 [CBK015661C],72.0584
8,O=C(Nc1ccc(NC(=O)c2ccco2)cc1)c1ccc(N2CCOCC2)c([N+](=O)[O-])c1 [CBK268739],98.1189
9,O=C(C1CCCC1)N1CCCC1c1nnc(-c2ccsc2)o1 (centres unmarked) [CBK285506],80.7387
10,Cc1cc(Br)ccc1OCC(=O)O/N=C(\N)Cc1ccc([N+](=O)[O-])cc1 [CBK265095],91.4289
11,O=C(NCc1ccncc1)Nc1ccc([N+](=O)[O-])cc1 [CBK264319],124.757
12,COc1cc2c(cc1NC(=O)c1cc(-c3cccnc3)nc3ccc(C)cc13)oc1ccccc12 [CBK267722],104.34
13,Cn1c2c(c3ccccc31)CCOC21CCN(CC2CCCCO2)CC1 (centres unmarked) [CBK040649],130.082
14,CCC(=O)NNC(=O)c1cc(O)nc2ccccc12 [CBK263495],107.496
15,CC(C)S(=O)(=O)CC(=O)Nc1ccc(C(=O)O)cc1 [CBK020001],122.705
16,COc1ccc(S(=O)(=O)N2CCN(c3ccccc3F)CC2)cc1 [CBK070377],100.785
17,CS(=O)(=O)Nc1ccc(C(=O)Nc2ccc(S(=O)(=O)Nc3nccs3)cc2)cc1 [CBK267856],62.6073
18,Cn1ccnc1C(NC(=O)C1CCCC1)c1ccc(F)c(F)c1 (centres unmarked) [CBK283784],62.7603
19,N#Cc1ccsc1NS(=O)(=O)c1ccc(Cl)c(Cl)c1 [CBK034735],101.423
20,N#CCCN(C(=O)NCc1ccc(Cl)c(Cl)c1)C1CCCCC1 [CBK156349],88.7123
21,CC(Cn1cncn1)NC(=O)c1cccc(S(=O)(=O)NC2CCCC2)c1 (centres unmarked) [CBK304209],53.079
22,Cc1ccnc(N2CCOC3(CCCC3)C2)n1 [CBK304794],34.6948
23,O=[N+]([O-])c1ccc(Oc2cccc3cccnc23)c(F)c1 [CBK002750],52.1768
24,CC(=O)N1CCN2C(=O)c3cc(-c4ccc5c(c4)OCO5)ccc3NC(=O)[C@H]2C1 [CBK289597],114.861
25,Cc1ccc(S(=O)(=O)N2CCN(C(=O)CSc3nnc4sc5ccccc5n34)CC2)cc1 [CBK265961],94.5365
26,CC(C)c1ccc(N2C(=O)[C@@H]3C[C@@H](NC(=O)c4ccnc(Cl)c4)CCN3C2=O)cc1 [CBK289544],100.728
